# According to ChEMBL document CHEMBL4513135, “CO-ADD screening of IQOG CSIS (Spain) compounds”:
# Values joined by “and” are separate entries in the source; they are usually repeats but may differ in a detail not shown here. Equal values may be shown once. This is one part of the list. Entries with a potency or affinity are not part of this list.
# System: Acinetobacter baumannii
# Settings: Concentration 32 ug.mL-1, ASSAY_TEST Inhibition of Bacterial Growth, detection method Absorption (OD600), MEDIA CAMHB, plate type 384well, NBS, CORNING #3640, time 18 hr
SMILES,Inhibition,Inhibition (32 ug/mL)
N#CC1(Br)C(=NBr)Oc2ccc3ccccc3c2C1c1ccccc1 (centres undefined),-3.68%,
Cc1ccc(C2CC2(N)C(=O)O)cc1.Cl (centres undefined),-3.73%,
CCOC(=O)C1=C(C)OC(N)=C(C#N)C1c1ccccc1 (centres undefined),7.79%,
N#CC1=C(N)Oc2c(ccc3ccccc23)C1c1c(Cl)cccc1Cl (centres undefined),0.55%,
COc1nc2ccc(C)cc2cc1C=O,14.54%,
C#CCNc1cccc(F)n1,11.82%,
CN(C)c1nc(Cl)c(C#N)c(-c2ccccc2)c1C#N,18.68%,
O=C(N/N=C/c1c[nH]c2ccccc12)c1ccc(Cl)cc1,-13.88%,
COc1ccc2c(c1)cc(CN(C)C)n2C,-2.87%,
COc1ccc(C=C2N=C(c3ccccc3)SC2=O)cc1,-3.42%,
COc1cccc(C2c3c(ccc4ccccc34)OC(=N)C2(Br)C#N)c1 (centres undefined),,7.07% and -8.6%
Cc1ccc(CNNC(=O)c2cc3ccccc3n2C)cc1,-4.69%,
N#CC1=C(Cl)Oc2c(ccc3ccccc23)C1c1ccc([N+](=O)[O-])cc1 (centres undefined),-15.4%,
O=C(N/N=C/c1ccc(Cl)cc1)c1cc2ccccc2[nH]1,5.09%,
CCOC(=O)C1=C(C)OC(N)=C(C#N)C1c1cccs1 (centres undefined),6.26%,
COc1nc(Cl)c(C#N)c(-c2ccccc2)c1C#N,9.38%,
CC(=O)n1cc(/C=C2\N=C(c3ccccc3)OC2=O)c2ccccc21,6.37%,
C#CCNc1nc(Cl)c(C#N)c(-c2ccccc2)c1C#N,9.61%,
C#CCN(C)c1nc(NC2CCN(Cc3ccccc3)CC2)c(C#N)c(-c2ccccc2)c1C#N,13.62%,
COc1cccc(C2C(C#N)=C(N)Oc3ccc4ccccc4c32)c1 (centres undefined),8.2%,
CCOC(=O)C1=C(C)NC(N)=C(C#N)C1c1ccc([N+](=O)[O-])cc1 (centres undefined),3.48%,
CC1(C)OS(=O)(=O)C2=C1NC(N)=C(C#N)C2c1ccccc1 (centres undefined),-1.86%,
CNC(=O)c1c(Cl)c2cc(OCc3ccccc3)ccc2n1C,14.32%,
Cc1nn(-c2ccccc2)c2ncnc(Nc3ccccc3)c12,-3.07%,
Cc1ccc2nc(Cl)c(/C=N/OCc3ccccc3)cc2c1,3.92%,
N#Cc1c(-c2ccccc2)c2c(ccc3ccccc32)oc1=O,10.93%,
N#Cc1c(Cl)nc(Sc2ccccc2)c(C#N)c1-c1ccccc1,6.81%,
COc1ccc(C2c3ccc4ccccc4c3OC(=NBr)C2(Br)C#N)cc1 (centres undefined),4.37%,
Cc1ccc(/C=N/NC(=O)c2c[nH]c3ccccc23)cc1,-1.39%,
